The values below come from the RNAGym collection of RNA variant scans (doi:10.1093/nar/gkz1192).

Read counts are not given, so values of variants with three or more changes are uncertain.

To fix the notation:
B1: CPEB3 Ribozyme (parent)
chain: UAACAGGGGGCCACAGCAGAAGCGUUCACGUCGCAGCCCCUGUCAGAUUCUGGUGAAUCUGCGAAUUCUGCUGUAUAUCUC

In the data set the parent is B1. The experiment in a line: self-cleavage, relative activity (ratio to wild type); higher = more cleavage; in vitro, sequencing. The essentials: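 After error-prone PCR and barcoding, CPEB3 ribozyme mutant libraries were transcribed with T7 RNA polymerase at 37°C for 5 hours, then given 15 min with DNase I before an EDTA stop, and they cleaved during both steps. Reverse transcription with template switching preceded Illumina sequencing. Relative activity divides a variant's cleaved/total read fraction by the unmutated ribozyme's. At least 5 reads were required per variant, and three batches were averaged.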
In the case of U26A G42U A45U U48C U54A, the self-cleavage is 0.07. For U26C C32U U41A U51C, the self-cleavage was 0.1.

Regarding U26C G42A U72A A77G U78C, the self-cleavage is 0.33. Turning to U26C A45G U67C U72G, the self-cleavage turned out to be 0.08. U26A U58A U67A: the self-cleavage stood at 0.1.

For U26A U31A U54C, the self-cleavage turned out to be 0.29.

As to U26C G61A U69C, the self-cleavage worked out at 0.16.

As to U26A U31C A64U U67C, the self-cleavage was 0.34.

For U26C G30A C32A A75G, the self-cleavage was 0.15. U26C U31A U43C U48C: the self-cleavage came out at 0.1. U26C U31C A45G U60A U67C: the self-cleavage came to 0.16. For U26C C38U U72C U74C U78A, the self-cleavage was determined as 0.32. For U26C A28U U54A U69A U74C, the self-cleavage amounted to 0.12. As for U26C A45G U54G A57G, the self-cleavage was found to be 0.06. Consider U26C G33A U48C, for which the self-cleavage came to 0.18. Consider U26C C50A A57G, for which the self-cleavage is 0.21. The same measure for U26C C50A A57U: 0.2; for U26C G53U U66A: 0.23; for U26A U58A U72A: 0.19. On to U26A U48C U76C, for which the self-cleavage is 0.53. As for U26A G36A A45G U67A, the self-cleavage was 0.09.

In the case of U26A U49C U80A, the self-cleavage is 0.26. On to U26C A47G U58A U60G U76C A77U, for which the self-cleavage was 0.07.

Take U26A U43C A56U: the self-cleavage stood at 0.19. In the case of U26C A35U U41G A45U U49G U54C C81A, the self-cleavage came to 0.05. For the variant U26A U31A U51C, the self-cleavage amounted to 0.33.

U26A G30U A47G U66C U80C: the self-cleavage amounted to 0.06. In the case of U26A U43A A64U, the self-cleavage is 0.14. U26A U43A A64G: the self-cleavage is 0.34. Take U26C C50U A64G: the self-cleavage turned out to be 0.16. Regarding U26C A45G A64U U74A, the self-cleavage is 0.05. As to U26C G42A U54G, the self-cleavage was determined as 0.08. For U26A U49C A56G, the self-cleavage was determined as 0.99. Regarding U26C C29U A35G U41C U60C, the self-cleavage is 0.1. As for U26C A28G U54C, the figure is 0.18. Take U26C U31A A45U: the self-cleavage turned out to be 0.16. The same measure for U26C C38G C59A C68U U80C: 0.17. For the variant U26A C62G C71U U74C, the self-cleavage amounted to 0.22. With U26C A35U U41C A56G U76C, the self-cleavage stood at 0.12.

As to U26C A77G U80C, the self-cleavage is 0.42. Regarding U26A U43A U67C, the self-cleavage was 0.08.

With U26A C50A U54C, the self-cleavage amounted to 0.4.

Consider U26C A35C A45G U49A U58A U60A, for which the self-cleavage worked out at 0.13. Consider U26C C50A A56G, for which the self-cleavage worked out at 0.15. As for U26C A65C U69G, the figure is 0.11; as for U26C C37U A64U U78C, 0.09; as for U26C C32A G63U, 0.1.

For the variant U26C C37U U72A, the self-cleavage worked out at 0.13. The same measure for U26C G46A U69C U72A: 0.17; for U26C A65C U72C: 0.12. As for U26C A45G U49C, the figure is 0.18.

Consider U26C A45G U49A, for which the self-cleavage was determined as 0.06. The same measure for U26A U49A A56U A64G U72C: 0.79; for U26C A35G U43C U60C U80G: 0.63; for U26C A57G A64G: 0.31. Regarding U26C A28C C44A, the self-cleavage came out at 0.06. For U26C A56U G73A, the self-cleavage is 0.55. As to U26A U41C U51A U80A, the self-cleavage was 0.33. For U26C A47G U54C U60A U72A, the self-cleavage was found to be 0.09. As for U26C A47G U49A, the figure is 0.46; as for U26A U58C A65C, 0.33. As for U26C C40A G53A A56G U58C, the figure is 0.05; as for U26C A45C U54C, 0.

Consider U26C A57G U69C A75G, for which the self-cleavage came out at 0.1. On to U26C C32U G55A A65G, for which the self-cleavage turned out to be 0.07. As to U26C C44A U49A, the self-cleavage turned out to be 0.14. On to U26C U31A A64U, for which the self-cleavage stood at 0.12. U26A U31A C62G A64G U66G: the self-cleavage came to 0.09. On to U26A U43A A64G A77G, for which the self-cleavage worked out at 0.24. The same measure for U26C A57G U60A A65G C68U: 0.12.

U26A U43C U54C A64G: the self-cleavage worked out at 0.1. On to U26C U31C A35G A45U A57G A65G A75G, for which the self-cleavage is 0.05. On to U26C A28G A47G A56G, for which the self-cleavage came out at 0.16.

In the case of U26C A56U U58G, the self-cleavage came out at 0.08. On to U26C A28G U48C, for which the self-cleavage was 0.13. U26C C29A U41A: the self-cleavage is 0.23. In the case of U26C A35G U43C A77G, the self-cleavage is 1.22.

U26C G53A A57G: the self-cleavage stood at 0.57. On to U26C A64G C71U A75G A77G, for which the self-cleavage turned out to be 0.08. The same measure for U26C A28U U41A: 0.11; for U26A G42A U54A U60A A77G U80C: 0.06; for U26C A64U U80A: 0.2. U26C A35G U66C U80A: the self-cleavage was found to be 0.64. With U26C C39U U41A U49C A56C, the self-cleavage turned out to be 0.3. As for U26C G33A A57U, the figure is 0.38. Turning to U26C G36A A57G U67C, the self-cleavage was found to be 0.11. Take U26C G46A U58A A64G A77U: the self-cleavage stood at 0.08. Take U26C G70C U76A: the self-cleavage is 0.12.

For U26A U41C A45U, the self-cleavage is 0.49. Regarding U26C A57G U78A, the self-cleavage was 0.43. For U26A U60G U78A, the self-cleavage was 0.3. The same measure for U26C A45G A64U: 0.16; for U26C C37U U48A A56U U66C: 0.05.

Regarding U26A G63C U72C, the self-cleavage is 1.09.

Turning to U26C C44A U51A A56C U67C A77U U78A, the self-cleavage was determined as 0.07. The same measure for U26C C29G U48C A64C C68A: 0.07; for U26C A45U G63A A75G: 0.06; for U26C A35U U43C U69C: 0.07. For U26A U31C U41C C59U, the self-cleavage worked out at 0.32.

On to U26A U31C U51A C59G U69A A77U, for which the self-cleavage worked out at 0.07. The same measure for U26C G52A A65G U66A U76A U78C: 0.05; for U26A U48C U54A: 0.38. Take U26C A57U A64U: the self-cleavage was 0.15.

As for U26C G33U U49A U66C G73A, the self-cleavage stood at 0.16. Consider U26A U31C U49C C50U, for which the self-cleavage came to 0.45.

Consider U26C U31A A77U, for which the self-cleavage came to 0.13.

Take U26C A65G U67C: the self-cleavage is 0.29. As to U26C C40U A45U G63C, the self-cleavage is 0.1. Consider U26A U48C A64G A65C, for which the self-cleavage amounted to 0.14. In the case of U26C A35G A65U U72A, the self-cleavage is 0.14. As to U26C C34U U66C U80C, the self-cleavage worked out at 0.14. As for U26A G33A G46A U51C U66C U78C U80A, the self-cleavage is 0.12. Regarding U26A U31A G52A U80C, the self-cleavage turned out to be 0.44. Take U26C C32U C37U U48A U67C: the self-cleavage turned out to be 0.09.

Regarding U26A U51G A64C U78C, the self-cleavage was 0.25. For the variant U26C U31A A57G U67C, the self-cleavage worked out at 0.09. With U26C A28G A64G, the self-cleavage was determined as 0.12.

U26C C34A U41C A47G U51A A65G U76C: the self-cleavage is 0.08. Consider U26A U51A G63A G73A, for which the self-cleavage was 1.23. In the case of U26C A28G U41A G63A, the self-cleavage was 0.31. On to U26A U31C U41C A64G, for which the self-cleavage amounted to 0.3.

For U26C A35G A65G, the self-cleavage is 0.81. Regarding U26C A35U A45U U48C U54A A65U A75G, the self-cleavage is 0.15. For the variant U26C U31A C32G, the self-cleavage was determined as 0.29. As for U26A U49C U54C, the figure is 0.31; as for U26C A28G U58G U67C, 0.11.

In the case of U26C U31A U41C U51A C81U, the self-cleavage came out at 0.2.

Take U26C A47G A77U: the self-cleavage stood at 0.31. With U26A C59A U69C U74A, the self-cleavage amounted to 0.09. Consider U26C A28U A77U U80C, for which the self-cleavage was 0.09. As to U26C C29U A57G A64G, the self-cleavage was determined as 0.12. With U26C C27U A47G A57G U60C, the self-cleavage came out at 0.14. On to U26C G42A U51C, for which the self-cleavage worked out at 0.15.

As for U26C A57G U67C U69A, the self-cleavage worked out at 0.07. With U26C U31A U78G, the self-cleavage was determined as 0.2.

Take U26C U31A U78C: the self-cleavage was found to be 0.14. Consider U26C A35G U54A, for which the self-cleavage is 1.14. On to U26C A35G U54C, for which the self-cleavage came out at 1.09. On to U26C U31A U72C, for which the self-cleavage is 0.22. In the case of U26C G30U U31C C32U, the self-cleavage was found to be 0.1. As to U26C G36A U51C, the self-cleavage turned out to be 0.15. U26C A35G U41C U51A A65G: the self-cleavage came out at 0.37. As for U26C A35U U80A, the figure is 0.14.

For the variant U26A G46U A64G U72C, the self-cleavage amounted to 0.17. Take U26C C39U U51C U76C: the self-cleavage came out at 0.37. Take U26C A64G U66C: the self-cleavage came out at 0.23. With U26C A28U U31C U41C U43A A77G, the self-cleavage was found to be 0.13. Turning to U26C A57G C81U, the self-cleavage came out at 0.33. For U26C A56G U72A U74C, the self-cleavage turned out to be 0.52. Take U26C C68G U69C: the self-cleavage turned out to be 0.15.

As to U26A G30A A57G U67A U69C U78A, the self-cleavage came out at 0.08.

Take U26C C50A G63A: the self-cleavage amounted to 0.24. Regarding U26C C27U A47U U49C U54C U60C, the self-cleavage amounted to 0.04. Consider U26C A28G G42U G55A A77U, for which the self-cleavage came out at 0.08. On to U26A U72C U76C U80A, for which the self-cleavage worked out at 1.21. The same measure for U26C A28U U80C: 0.34; for U26C A45U A77G: 0.26; for U26C G53U A65G: 0.14. As to U26A U31C U72C, the self-cleavage was determined as 0.82. In the case of U26C A28G U48C U74C, the self-cleavage was found to be 0.3.

For the variant U26A U41C U51A A65G, the self-cleavage stood at 0.43.

In the case of U26C A47G C62A, the self-cleavage amounted to 0.47.

For U26C A47G U66C U78A, the self-cleavage is 0.05. The same measure for U26A U41C U69C U78C: 0.16; for U26C C34A C62A: 0.11; for U26C A28U A47G U72A: 0.22. In the case of U26C A64U U76C, the self-cleavage amounted to 0.2.
